Where “and” joins values, the source holds several entries; their conditions need not be identical. Identical values can stand only once.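 All cell lines were grown in 96-well plates and treated with compound for 48 hours. GI50 = concentration required for 50% inhibition of growth. TGI: concentration producing complete growth inhibition.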 Numbered stars: 1 amine (or outer) side, 2 acyl side, 3 side chain; on linkers, the order of the positions; unused ones are H or OH. Square brackets hold non-standard residues; d marks the D form. Peptide text beside a SMILES is read from it. ξ: configuration not given here. X3 = CC[C@H](C)[C@H](OC(=O)[C@@H](C)[C@@H](CC)N[*:1])C(=O)[*:2]; X4 = C[C@H](N[*:1])C(=O)C(C)(C)C(=O)[*:2]; X14 = CC[C@@H](C)C(N[*:1])C(=O)[*:2]; NMeY = CN[C@@H](Cc1ccc(O)cc1)C(=O)O; NMeL = CN[C@@H](CC(C)C)C(=O)O; NMeV = CN[C@H](C(=O)O)C(C)C; ξR = N=C(N)NCCCC(N)C(=O)O; ξI = CCC(C)C(N)C(=O)O; ξL = CC(C)CC(N)C(=O)O; ξK = NCCCCC(N)C(=O)O; ξV = CC(C)C(N)C(=O)O; ξA = CC(N)C(=O)O
Each molecule was assayed on NCI-H322M lung (assay: inhibition of tumour cell growth, NCI panel, 48 h).
`c1ccc(N=C2SC3=NCCN3C2=Nc2ccccc2)cc1` was tested, and the TGI was 30.3 µM. `O=C(c1ccc(Cl)cc1)c1ccc(OCCSCCCCCCCCCCSCCOc2ccc(C(=O)c3ccc(Cl)cc3)cc2)cc1` gave a TGI of over 100 µM. In the case of `COC(=O)[C@H](Cc1ccccc1)NP(=O)(O)OCC1C=CC(n2cc(C)c(=O)[nH]c2=O)O1` (some centres not stated), the TGI is reported as over 100 µM. With `CC1(C)CC(Nc2ccc(Nc3ccccc3)cc2)CC(C)(C)N1` the TGI was over 100 µM. `COc1cc2c(c(OC)c1OC)-c1ccc(OC)c(=O)cc1[C@@H](N(C)C=O)CC2` was tested, and the TGI was 2.39 µM. `O=C1CCS/C(=N\S(=O)(=O)c2ccc(N3N=C4c5ccccc5CC4C3c3cccs3)cc2)N1C(=O)c1ccccc1` (configuration not stated) was tested, and the GI50 was 32.5 µM and the TGI was 70.8 µM. `COc1ccc(-c2csc(NC(=O)c3cc(O)c(O)c(O)c3)n2)cc1` gave a GI50 of 12 µM and a TGI of over 33.3 µM. `COc1ccc(-c2cc(-c3cc(F)c(Cl)cc3Cl)on2)cc1OC` was tested, and the TGI was over 100 µM. Work on `NS(=O)(=O)c1ccc(NC(=O)c2cccc3cc4ccccc4nc23)cc1` yielded a TGI of over 100 µM. `C#CC(O)/C=C/C(O)CCCC(O)CC#CC(O)C#CC(O)CCCC(O)/C=C/CCCC(=O)CCCCCCCCCCCCCCCC(O)C(O)C#CC(=O)O` (configuration not stated) gave a TGI of over 50 µM. For `NS(=O)(=O)c1nnc(NS(=O)(=O)c2ccccc2C(=O)O)s1`, the TGI was over 100 µM. In the case of `Cc1c(N=Cc2ccc(N(CCC#N)CCC#N)cc2)c(=O)n(-c2ccccc2)n1C`, the TGI is reported as over 100 µM. `Cc1nc(C(N)=S)sc1C(=O)C/C(=N/N)C(=O)Nc1ccc(Cl)cc1` gave a TGI of over 100 µM. In the case of `COC1=C(Br)C(=O)C2=C(C1=O)C1C3=C(C(=O)C=CC3=O)C2c2ccccc21` (configuration not stated), the GI50 is reported as 36.1 µM and the TGI is reported as 89.4 µM. Work on `O=C1c2ccccc2C(=O)c2c(O)ccc(O)c21` yielded a TGI of over 100 µM. With `CSc1ncnc2c1CCN2` the GI50 was over 100 µM and the TGI was over 100 µM. In the case of `CCN1CCC(O)(c2ccc(Oc3ccc(C)cc3)cc2)C(C(=O)c2ccc(Oc3ccc(C)cc3)cc2)C1` (configuration not stated), the TGI is reported as 26 µM. Molecule `O=C(OCc1ccccc1)N1CCN(C(=O)OCc2ccccc2)CCN(C(=O)OCc2ccccc2)CCN(C(=O)OCc2ccccc2)CCN(C(=O)OCc2ccccc2)CC1` has a TGI of over 100 µM. Molecule `C=CCCCCCCCCCOC1C=CC(OC(C)=O)C(COC(C)=O)O1` (configuration not stated) has a TGI of over 100 µM. `CC(Cc1ccccc1)NC1=NCCO1` (configuration not stated) showed a TGI of over 100 µM. Work on `NC(=O)c1nnsc1NC=O` yielded a TGI of over 100 µM. Molecule `CC(C)Nc1ncc2cc(Oc3ccc(F)cc3F)c(=O)n(C)c2n1` has a GI50 of over 25 µM and a TGI of over 25 µM. For `C[C@H](N)C(=O)N1C[C@H](CCCB(O)O)[C@](N)(C(=O)O)C1`, the GI50 was over 100 µM and the TGI was over 100 µM. For `CCOC(=O)C(C(=O)OCC)=C1NC2(c3ccccc3Nc3ccc(C)cc32)C(C(=O)OC)S1` (configuration not stated), the TGI was over 100 µM. With `COc1ccc(N(C)c2c3ccccc3nc3[nH]c4ccccc4c23)cc1` the GI50 was 0.391 µM and the TGI was 1.23 µM. In the case of `COc1cc(C2c3cc4c(cc3[C@@H](Nc3cccc([N+](=O)[O-])c3)C3COC(=O)[C@H]23)OCO4)cc(OC)c1O` (some centres not stated), the TGI is reported as over 100 µM. Work on `Cc1nnc(-n2c(O)cc(=O)n(-c3ccccc3)c2=S)nc1/C=C/c1ccc(N(C)C)cc1` yielded a TGI of over 74.6 µM. `NC(=O)CC(N=C1C(=O)OC(C(O)CO)C1=NC(CC(N)=O)C(=O)O)C(=O)O` (configuration not stated) showed a TGI of over 100 µM. Work on `CCC(C)C1NC(=O)C(CC(C)C)NC(=O)C(C)NC(=O)C(C(C)C)NC(=O)C(CCCCN)NC(=O)C(CC(C)C)NC(=O)C(C(C)C)NC(=O)[C@H](C)NC(=O)C(C(C)CC)NC(=O)C(CCCN=C(N)N)NC(=O)C(CCCCN)NC(=O)C(CCCN=C(N)N)NC(=O)C(CCCCN)NC(=O)C([C@H](C)CC)NC(=O)C(CCCCN)NC1=O` (some centres not stated) (cyclo(A[ξV][ξL][ξK][ξV][ξA][ξL][ξI][ξK][X14][ξK][ξR][ξK][ξR][ξI])) yielded a GI50 of 2.86 µM and a TGI of 11 µM. `COc1ccc2c(c1)C1(C(=O)N2)C(C#N)=C(c2ccccc2)Nc2c1c(-c1ccccc1)nn2-c1ccccc1` (configuration not stated) showed a GI50 of 5.58 µM and a TGI of 18.8 µM. In the case of `O=c1cc(N=Nc2ccc(Cl)cc2)[nH]c(=O)[nH]1`, the TGI is reported as 19.6 µM. Work on `CC(C)C1CC[C@H](C)C[C@@H]1OC(=O)C(C(=O)O[C@H]1C[C@@H](C)CCC1C(C)C)C(O)[C@@H]1OC(C)(C)O[C@H]1C1COC(C)(C)O1` (some centres not stated) yielded a TGI of 38 µM. Work on `S=c1nc(N2CCCCC2)ss1` yielded a TGI of over 100 µM. `O=C1ON=C2C3CC4CC12CC1(C3)C(=O)ON=C41` showed a TGI of over 100 µM. `O=C(/C=C/c1ccccc1Cl)c1ccc(Cl)cc1Cl` gave a TGI of 34 µM. `COc1ccc(OC)c2c(=S)c3ccccc3[nH]c12` gave a TGI of over 100 µM. Molecule `O=C1NN(c2ccccc2)C(=O)/C1=C/c1ccc(Br)o1` has a GI50 of 12.8 µM and a TGI of 25.6 µM. In the case of `NC(=O)c1ccc2nc3c(n2c1)C(=O)C(=O)c1ccccc1-3`, the GI50 is reported as 1.74 µM and the TGI is reported as 3.13 µM. `O=c1c2ccccc2nc(-c2cccc(Cl)c2)n1NCC1(O)OCC(O)C(O)C1O` (configuration not stated) gave a TGI of over 100 µM. Work on `Cc1cc(N(CCCl)CCCl)ccc1/C=N/NC(=O)Cc1cc(=O)oc2cc(O)ccc12` yielded a TGI of 54 µM. `CCCN(CCSSCCNc1nc(N(C)O)nc(N(C)O)n1)c1nc(N(C)O)nc(N(C)O)n1` was tested, and the GI50 was 4.4 µM and the TGI was over 100 µM. `CC[C@H](C)[C@@H]1OC(=O)[C@@H](C)[C@@H](CC)NC(=O)[C@H](C)NC(=O)C(C)(C)C(=O)[C@H](C)NC(=O)[C@H](Cc2ccc(OC)cc2)N(C)C(=O)[C@H](C(C)C)N(C)C(=O)CNC(=O)[C@H](CC(C)C)N(C)C(=O)CNC1=O` (cyclo(A[X3]G[NMeL]G[NMeV][NMeY](Me)[X4])) was tested, and the GI50 was 0.141 µM and the TGI was 6.88 µM and 21.6 µM. `Cc1cccc(C)c1NC(=O)CCc1n[nH]c(=S)o1` was tested, and the TGI was over 100 µM. Work on `C(=C\c1cc(-c2ccc3ccccc3n2)nc2ccc3ccccc3c12)/c1ccc2ccccc2n1` yielded a TGI of over 100 µM.

Source: PubChem BioAssay (NCI)
